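Test compounds were applied to cells in 96-well plates for 48 hours at 5 doses. Here, GI50 denotes the concentration required for 50% inhibition of growth. TGI is the concentration that stops growth completely.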
System: NCI-H322M lung
Assay: NCI anticancer screen, dose series, 48 h

| SMILES | TGI [µM] | GI50 [µM] |
| --- | --- | --- |
| C=CO/N=[N+](\[O-])N(CC)CC | > 100 |  |
| CC(C)N(C(=O)c1cccc(C(=O)N(C(C)C)C(C)C)c1)C(C)C | > 100 |  |
| COC(=O)c1c2c(c(C)[n+]([O-])c1C)C(=O)C=C(NCc1ccccc1)C2=O | 5.7 | 1.28 |
| Cc1cc(N(CCC#N)S(=O)(=O)c2ccccc2)ccc1/C=C1\N=C(c2ccc(Cl)cc2)OC1=O | > 100 |  |
| CC1=NN(c2cccc(Cl)c2)C2(C1=Cc1ccc(O)cc1)C(Cl)C(=O)N2c1nc2ccccc2s1 (stereo unspecified) | 74.6 |  |
| c1ccc(-c2nn3c(c2-c2ccnc4cc(OCCN5CCOCC5)ccc24)CCC3)nc1 | > 100 | 55.8 |
| NNC(=O)Nc1nc2ccc(NN)cc2[nH]1 | > 100 |  |
| Cc1ccc(S(=O)(=O)N2C[C@@H]3CC[C@]4(CO[Si](C)(C)C(C)(C)C)N[C@@H](c5ccccc5)[C@H]2[C@H]34)cc1 | > 100 |  |
| CC(=O)n1cc(C2CC23N=C(c2ccccc2)OC3=O)c2ccccc21 (stereo unspecified) | > 86 |  |
| O=C(O)CSc1ccccc1C(=O)O | > 100 |  |
| O=C1CCCNn2c(nc3ncccc3c2=O)N1 | > 100 |  |
| COc1cc2c3c(n(CCCN)c(=O)c2cc1OC)-c1ccc([N+](=O)[O-])cc1C3=O | 33.9 | 16.3 |
| CCOC(=O)NC(=O)c1cn(CCN2CCN(C(=O)CNC(=O)CNC(=O)Cn3cc(C(=O)NC(=O)OCC)c(=O)[nH]c3=O)CC2)c(=O)[nH]c1=O | > 100 |  |

From PubChem BioAssay (NCI)
